# In patent US8754051B2, “Peptide modulators of the δPKC interaction with the d subunit of F1Fo ATP synthase/ATPase and uses thereof” (Georgia Regents Research Institute, Inc., priority 2009, dated 2014):
# Test system: F1Fo ATPase
# Experiment: Oligomycin-sensitive F1Fo ATPase activity in NCMs after 4-β PMA
# Procedure: FIG. 2: 4-β PMA attenuates F1Fo ATPase activity. Neonatal cardiac myocytes (NCMs) were treated as in FIG. 1. The oligomycin-sensitive F1Fo ATPase activity was measured spectrophotometrically using sonicated NCM lysates. Results are expressed as mean±S.E. from 4 independent experiments, each conducted in triplicate, using samples from four different myocyte preparations. Asterisks indicate statistically significant differences between 4-α PMA and either 3 or 100 nM 4-β PMA (p<0.001).
# To determine if the above δPKC-dF1Fo co-IP correlated with changes in F1Fo activity, mitochondria from NCMs were isolated and the F1Fo complex were solublized. Since the mitochondrial electrochemical/proton gradient is disrupted by these isolation procedures, the enzyme operates in reverse-mode as an ATPase. Therefore, F1Fo ATPase activity in these assays was monitored as an index of F1Fo complex activity. NCMs were exposed to 0, 3, or 100 nM 4-β PMA and assayed for F1Fo ATPase activity. 3 nM 4-β PMA inhibited the basal, oligomycin-sensitive F1Fo ATPase activity by 39.7±3.1%. This inhibition was increased to 72.1±9.4% follow-ing a 20 min, 100 nM 4-β PMA exposure (FIG. 2). Mean±S.E. values are plotted in FIG. 2 from 4 independent experiments, each from a separate NCM preparation. (*) denotes statistically different from 0 nM PMA group.
compound,measurement,setting,value
"CCCCCCCCCCCCCC(=O)O[C@@H]1[C@@H](C)[C@@]2(O)[C@@H](C=C(CO)C[C@]3(O)C(=O)C(C)=C[C@@H]23)[C@@H]2C(C)(C)[C@]12OC(C)=O [4-β PMA, 4-β phorbol 12-myristate-13-acetate]",inhibition of basal oligomycin-sensitive F1Fo ATPase activity,"3 nM 4-β PMA, 1 hr",39.7±3.1%
same,inhibition of basal oligomycin-sensitive F1Fo ATPase activity,"100 nM 4-β PMA, 20 min",72.1±9.4%
